Test results from PubChem BioAssay AID1645882 (National Center for Advancing Translational Sciences (NCATS), 2021).
Among all 16,000 compounds or so, about 120 (0.75%) were called active. Not shown: some 4% with an inconclusive outcome. The call rests on the fitted dose curve; in most records, active means well fitted inhibition curve with a large enough effect; inconclusive means small, poorly fitted or top-dose-only effect; inactive means no such curve, though single readings can be large or run the other way. The list shows a part of the results. Some compounds were tested as several samples or in several runs, with calls that do not always agree.

Biological target: Rap guanine nucleotide exchange factor 3 (Homo sapiens) (UniProt O95398)
UniProt O95398, sequence (O95398 whole entry, looked up): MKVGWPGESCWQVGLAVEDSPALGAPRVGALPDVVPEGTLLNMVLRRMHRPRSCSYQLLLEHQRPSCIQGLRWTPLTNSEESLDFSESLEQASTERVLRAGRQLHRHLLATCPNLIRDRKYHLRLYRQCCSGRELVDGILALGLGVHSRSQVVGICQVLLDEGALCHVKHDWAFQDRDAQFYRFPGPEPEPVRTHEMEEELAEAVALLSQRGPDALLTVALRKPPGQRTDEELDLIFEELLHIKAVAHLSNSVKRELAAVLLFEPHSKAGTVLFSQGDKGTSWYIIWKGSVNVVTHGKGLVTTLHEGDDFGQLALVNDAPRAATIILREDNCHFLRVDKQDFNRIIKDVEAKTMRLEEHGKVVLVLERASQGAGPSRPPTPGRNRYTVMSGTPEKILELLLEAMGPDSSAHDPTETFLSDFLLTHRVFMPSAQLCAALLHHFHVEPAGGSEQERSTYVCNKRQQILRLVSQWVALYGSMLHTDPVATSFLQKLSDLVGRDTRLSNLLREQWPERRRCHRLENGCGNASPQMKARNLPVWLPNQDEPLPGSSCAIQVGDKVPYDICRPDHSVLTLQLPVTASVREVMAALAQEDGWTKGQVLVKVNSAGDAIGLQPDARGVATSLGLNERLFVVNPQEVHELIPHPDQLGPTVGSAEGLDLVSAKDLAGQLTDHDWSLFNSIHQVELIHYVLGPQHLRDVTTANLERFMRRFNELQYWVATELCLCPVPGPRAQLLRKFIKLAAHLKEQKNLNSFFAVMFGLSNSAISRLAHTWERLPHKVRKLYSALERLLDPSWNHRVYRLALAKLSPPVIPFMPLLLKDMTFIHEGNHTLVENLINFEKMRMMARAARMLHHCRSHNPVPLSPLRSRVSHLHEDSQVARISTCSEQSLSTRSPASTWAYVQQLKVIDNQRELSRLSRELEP
Test: Validation qHTS for antagonist of cAMP-regulated guanine nucleotide exchange factor 3 (EPAC1);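 further: plate controls were DMSO for no effect and ATA control for full effect; nearly all actives have a fitted effect of over 75% in size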
Details: EPAC1 Rap1B-BODIPY-GDP exchange, fluorescence; series mostly up to 150 µM; activity change, negative = inhibition: at the top concentration
Outline: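 Nucleotide exchange followed as fluorescence loss when BODIPY-GDP leaves Rap1B (480 nm excitation, 540 nm emission), read at 5 min intervals over 30 min. Reaction: 100 nM EPAC1, 250 nM RAP1B-BODIPY-GDP, 50 uM GDP; ATA and DMSO define normalization.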

Activity change, negative = inhibition, inactive:
COc1cccc(CNC(=O)c2c(OC)cc(=O)n3c2CCN(C(=O)c2ccc(Cl)cc2)CC3)c1 12.7%
COc1cccc(Cn2c(=O)c(-c3cn(C)c4ccccc34)nc3cnc(N4CCNCC4)nc32)c1 -26.1%
CC(=O)O[C@H]1Cc2ccccc2N(C(N)=O)c2ccccc21 10.8% [at 75.8 µM]
Cc1ccccc1C1(CC(=O)N2CC3CC4CC(C3)CC2C4)CC(=O)N(Cc2cccnc2)C1=O (stereo not drawn) 10%
COc1ccccc1CNc1ccnc(-c2ccc(N(C)C)cc2)n1 -21%
COc1cccc(-c2nc(NC3CC3)c3ccccc3n2)c1 -3.29%
COc1ccc(CC(=O)c2ccc(O)cc2O)cc1 3.77%
O=C(NCC1Cc2cc(F)cc(-c3cccnc3)c2O1)c1cnn(-c2ccccc2)c1 (stereo not drawn) -1.33%
CCC(O)CNC(=O)c1cnn(-c2ncc3c(n2)-c2ccc(OC)cc2CC3)c1C1CC1 (stereo not drawn) 10.3%
COCc1c(C(=O)N2CCN(C(C)C)CC2)cnn1-c1nccc(-c2cc(C)sc2C)n1 -3.58%
CC(=O)OC1CC2C(C)(C)C(O)C=C[C@@]2(C)C2CC[C@@]3(C)C(c4ccoc4)OC(=O)C4OC43[C@]12C (stereo partly drawn) 2.42%
O=C(c1ccncc1)N1CCC[C@@]2(CCN(C(c3ccccc3)c3ccccc3)C2)C1 9.79%
O=C(C[n+]1ccccc1Cl)c1ccc(F)cc1 16.5%
COc1ccc(-n2ccc(-c3sc(NCc4cc(OC)c5c(c4)OCO5)nc3C)n2)cc1 -10.3%
Cc1cnc(CNc2nc(-c3cccc(NS(C)(=O)=O)c3)nc3ccccc23)cn1 0.762%
C[C@H](NC(=O)/C(C#N)=C/c1ccc(O)c(O)c1)c1ccccc1 11.1% [at 75.8 µM]
O=S(=O)(NCCNC/C=C/c1ccc(Br)cc1)c1cccc2cnccc12
C[S+](CC[C@H](N)C(=O)O)C[C@H]1O[C@@H](n2cnc3c(N)ncnc32)[C@H](O)[C@@H]1O (stereo partly drawn)
COCCNc1ncncc1-c1ccccc1OC -0.603%
Cc1ncc2c(c1CNC(=O)c1cncs1)CCN(C(=O)c1ccsc1)C2 16.1%
C=C1C2=CC(=O)OC(c3ccoc3)[C@]2(C)CCC1[C@]1(C)C=CC(=O)C(C)(C)C1CC(=O)OC (stereo partly drawn) -0.716%
COc1c(C2=CC(=O)N(C)C2=O)c2c(n1C)C(=O)c1ccccc1C2=O 29.9%
Cn1cc(-c2nc3cnc(OCc4ccccc4)nc3n(CCC#N)c2=O)c2ccccc21 9.75%
CCCCC1=NC2(CCCC2)C(=O)N1Cc1ccc(-c2ccccc2-c2nn[nH]n2)cc1 13.1%
Cc1ccc2nc(SCC(=O)NCC3Cc4cccc(-c5nc(C)cnc5C)c4O3)[nH]c2c1 (stereo not drawn) 6.05%
COc1c2c(cc3occ(-c4ccc5c(c4)OCO5)c(=O)c13)OC(C)(C)C=C2 9.69%
CC(C)(C)c1cc(/C=C(\C#N)C(N)=S)cc(C(C)(C)C)c1O
COc1ccc(C(=O)NCCc2nnc3n2CCN(CC2CC=CCC2)CC3)cc1 (stereo not drawn) 10%
Cc1cnc(CNc2cc(-c3ccccc3C(F)(F)F)ncn2)cn1 2.28%
Oc1cccc(O)c1O -18.6%
COC1=CC(=O)C[C@@H](C)[C@]12Oc1c(Cl)c(OC)cc(OC)c1C2=O
COc1ccc(/C=C/c2cc(OC)c(OC)cc2CC[N+](C)(C)C)cc1 21%
COc1cccc(-n2c(SC)nnc2C2CCN(CCC(C)c3ccc(C)o3)CC2)c1 (stereo not drawn) 6.03%
Cn1cc(-c2nc3cnc(N4CCOCC4)nc3n(CCC#N)c2=O)c2ccccc21 41.4%
N#Cc1ccccc1OC[C@H](O)CNCCNC(=O)Nc1ccccc1 8.31%
C=CCN1CC[C@@H](O)C(=C)S1(=O)=O 2.18%
COc1cc(=O)n(C)c2c(OCC(O)C(C)(C)O)cccc12 (stereo not drawn) 12%
COc1ccc(CNc2ncncc2-c2c(C)noc2C)c(OC)c1 -7.26%
CCC1CN(Cc2ccc(COC)o2)Cc2cc(OC)ccc2O1 (stereo not drawn) -4.58%
COc1cccc(Cn2c(=O)c(-c3cc(F)cc(F)c3)nc3cnc(OC)nc32)c1 2.88%
CN(C)CCC(c1ccc(Cl)cc1)c1ccccn1 (stereo not drawn) -6.76% [at 75.8 µM]
COc1cc(N)c(Cl)cc1C(=O)NC1CCN(CCCOc2ccc(F)cc2)CC1OC (stereo not drawn) 1.64% [at 75.8 µM]
C[C@H](O)C(=O)C1=Nc2c(nc(N)[nH]c2=O)NC1 62.7% [at 75.8 µM]
CC(O)(COc1ccccc1)c1ccc2c(c1)CN(Cc1cccn1-c1ccccn1)CCO2 (stereo not drawn) -3.67%
CC(=O)N1CCC2(CC1)CCN(c1ncccn1)CC2 10.6%
C=C1CC2C3CCC4=CC(=O)C=C[C@]4(C)[C@@]3(F)[C@@H](O)C[C@]2(C)[C@@]1(O)C(=O)COC(C)=O (stereo partly drawn) 19.9%
COC(=O)[C@H]1C(OC)[C@@H](OC(=O)c2cc(OC)c(OC)c(OC)c2)C[C@@H]2CN3CCc4c([nH]c5cc(OC)ccc45)[C@H]3C[C@H]21 (stereo partly drawn) -6.08%
O=c1c(-c2ccc(F)cc2)nc2cnc(Nc3ccccc3)nc2n1Cc1cccs1 6.68%
Cc1cccc(CNc2ncnc3ccc(-c4c(C)noc4C)cc23)c1 3.67%
CN(Cc1ccco1)c1cc(-c2cccnc2)ncn1 13.6%
CN1Cc2sccc2C(c2ccc(O)c(O)c2)C1 (stereo not drawn) 20% [at 75.8 µM]
COc1cc2c(cc1OC)C(=O)OC2 9.53%
CN1CCN(c2ncc3nc(-c4cccc(C#N)c4)c(=O)n(CCc4ccccc4)c3n2)CC1 7.24%
COc1ccccc1N1CCN(CCN2C(=O)CC3(CCCC3)CC2=O)CC1
CC[C@H](C)N(C)C(=O)c1cc2ccccc2c(-c2ccccc2Cl)n1 -8.6%
OCC(O)CN1CCN(c2ccccc2)CC1 (stereo not drawn) 16.8%
COc1cccc2c3c(c(C)nc12)CC(CO)O3 (stereo not drawn) 20.5%
N#Cc1cccc(-c2cncnc2-n2ccnc2)c1 26.5%
Cc1cc(C(=O)Nc2ccccc2-c2nc(CNC(=O)c3sc(C)nc3C)c(C)o2)c(C)o1 17.6%
COCCn1c(=O)c(CCc2ccccc2)nc2cnc(OC)nc21 22.4%
O=c1c(-c2cccs2)nc2cnc(N3CCOCC3)nc2n1Cc1cccs1 27.6%
N#Cc1ccc(CN2CCC3(CC2)CCN(C(=O)c2cc(C(F)(F)F)cc(C(F)(F)F)c2)CC3)cc1 -29.9%
C#C[C@]1(O)CC[C@H]2[C@H]3CCC4=Cc5oncc5C[C@]4(C)[C@@H]3CC[C@]21C 4.35%
CNC(=O)C[C@@H](N)C(=O)N[C@@H](C(=O)N[C@@H]1C(=O)N2[C@@H]1SC(C)(C)[C@@H]2C(=O)O)c1ccc(O)cc1 0.579%
CO 15.9%
CC(C)(C)C1CCC(=O)N(CCC#N)CC1 (stereo not drawn) 10.9%
CN1CCN(c2ncc3ncc(=O)n(C[C@H]4CCCO4)c3n2)CC1 1.83%
O=C(O)CNC(=O)C(CS)Cc1ccccc1 (stereo not drawn)
CCCCCCCC/C=C\CCCCCCCCN 16.1%
O=C(O)c1ccc(NC2OC[C@@H](O)[C@H](O)[C@H]2O)cc1 (stereo partly drawn) 2.17%
COc1cccc(-c2cc(N(C)Cc3ccco3)ncn2)c1 -4%
CCCNC(=O)N1N=C(c2ccc(N)cc2)c2cc3c(cc2[C@H]1C)OCO3 -12%
Cc1ncc2c(c1CNS(=O)(=O)c1cccs1)CCN(C(=O)/C=C/c1cc(F)cc(F)c1)C2 -0.501%
Cc1nc2cnc(Oc3ccccc3)nc2n(C2CC2)c1=O -4.69%
O=S1(=O)[C@H]2C[C@@H]3C=C[C@@]2(CN1Cc1ccc(F)cc1)O3 11.2%
Cc1cccc(CNC(=O)c2cnn(-c3nccc(-c4cc5ccccc5o4)n3)c2C2CC2)n1 -4.64%
CN(C)CCCC1(c2ccc(F)cc2)OCc2cc(C#N)ccc21 (stereo not drawn) 17.1% [at 75.8 µM]
CN1CCN(c2ncc3nc(-c4ccc(Cl)cc4)c(=O)n(C4CC4)c3n2)CC1 21.9%
COc1cccc(Nc2ncc3nc(-c4cccs4)c(=O)n(C[C@H]4CCCO4)c3n2)c1 84.6%
Nn1nnc2ccccc21 -2.23% [at 75.8 µM]
CC(C)[N+](C)(C)CC(O)COc1cccc2ccccc12 (stereo not drawn) 16.8%
CCCC(CCC)C(=O)O
COc1cccc(N2[C@@H](CC(=O)O)c3ccc(/C=C/C(=O)O)cc3S2(=O)=O)c1 -7.59%
CCC1(C2CCN(Cc3ccc(C)s3)CC2)NC(=O)N(CC2COc3ccccc3O2)C1=O (stereo not drawn) -9.69%
Nc1nc2ncc(=O)[nH]c2c(=O)[nH]1 -13.7%
CC1/C=C/C=C/C=C/C=C/C=C/C=C/C=C/C(OC2OC(C)C(O)C(N)C2O)CC2O[C@@](O)(CC(O)CC(O)C(O)CCC(O)CC(O)CC(=O)OC(C)[C@H](C)C1O)CC(O)C2C(=O)O (stereo partly drawn) 34%
CC(C)CN1CCC2(CC1)CCN(C(=O)c1cc(C(F)(F)F)cc(C(F)(F)F)c1)CC2 4.87%
O=C(Nc1ccccc1)N1CC[C@@]2(CCCN(C(=O)c3ccco3)C2)C1 -1.39%
CC(=O)Nc1ccc(SC[C@H](Cc2ccccc2)N2CC[C@@H](C)CCC2=O)cc1 9.15%
COc1ccc(Oc2ncc3ncc(=O)n(C[C@H]4CCCO4)c3n2)cc1 -5.08%
COc1ccc2c(c1)CCc1cnc(-n3ncc(C(=O)NCCCN4CCOCC4)c3C)nc1-2 21.9%
CCNc1ncc2ncc(=O)n(C[C@H]3CCCO3)c2n1 19.1%
COc1cc(CNCc2cc3cc(C)ccc3nc2-c2ccc(F)cc2)cc(OC)c1OC 10.1%
O=C(NCC1Cc2cc(-c3cncnc3)cc(Cl)c2O1)c1cccc(Cn2cccn2)c1 (stereo not drawn) 16.5%
CC(=O)N1CCC2(CC1)CCN(c1ccccn1)CC2 23.7%
Cc1ccc(CN2CCOCCS2(=O)=O)cc1 -20.5%
COc1ccccc1CNCCCCCCNCCCCCCCCNCCCCCCNCc1ccccc1OC
CCCCCCC[n+]1ccc(C)c2ccccc21 11.7%
CN[C@@H]1CCc2[nH]c3ccc(C(N)=O)cc3c2C1 -11.1%
NCCC(=O)O
COc1ccc(CNC(=O)[C@@H]2CC=C[C@@H]3CCN(Cc4ccccc4)C(=O)[C@@H]32)cc1 3.37%
O=C1/C(=C/c2ccsc2)CC/C1=C\c1cccs1 5.78% [at 75.8 µM]
Cc1ccccc1-c1nc(NCCN2CCOCC2)c2ccccc2n1 27.3%
